Reference: PubChem BioAssay (EPA / NIEHS)
For some of these results: Most of the hits are listed elsewhere, so they are rarer here than in the full data. Inconclusive results are not listed. The entries are a selection whose mix differs from that of the whole data set. Some compounds were tested as several samples or in several runs, with calls that do not always agree. Activity calls are given as the source filed them. The calls were made as follows, unless noted: active = hit-call score of the fitted dose curve at least 0.9, where 1 is the maximum; inactive = score below 0.9.

How the values were obtained:
[1] = molecular target: Retinoic acid receptor RXR-alpha (Homo sapiens) (UniProt P19793); test: ATG_RXRa_TRANS: Attagene TRANS-FACTORIAL HepG2 Assay for human Retinoid X Receptor alpha (RXRa) (AID 2283012; active = hit-call score of the fitted dose curve at least 0.9, where 1 is the maximum)
Procedure, shortened: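 Measures exogenous chimeric NR-GAL4 activity in transfected HepG2 liver cells after 24 h of dosing. Induced reporter mRNA was detected by RT-PCR with capillary electrophoresis, and gain of signal was analysed against DMSO.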

[2] = BSK_3C_Vis: BioMAP Diversity Plus: 3C Assay for Morphology Visualization (AID 2283025); conditions: primary human endothelial cells (HUVEC);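 also: fitted both ways so gain or loss versus DMSO counts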
Procedure, shortened: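 Morphology read by light microscopy serves as a background control for the multiplexed 3C assay in human umbilical vein endothelial cells, taken 24 h after dosing, with DMSO as the negative control and bidirectional curve fitting.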

[3] = read-out: Monocyte Chemoattractant Protein-1 (MCP1), CCL2 (gene 6347); test: BSK_CASM3C_MCP1: BioMAP Diversity Plus: CASM3C Assay for Monocyte Chemoattractant Protein-1 (MCP1) Biomarker Activity (AID 2283046); conditions: actives raise or lower the signal; primary human coronary artery smooth muscle cells;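 also: MCP-1 level quantified by ELISA 24 h after dosing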
[4] = read-out: Epidermal growth factor receptor (EGFR), EGFR (gene 1956); test: BSK_hDFCGF_EGFR: BioMAP Diversity Plus: hDFCGF Assay for Epidermal growth factor receptor (EGFR) Biomarker Activity (AID 2283057); conditions: actives raise or lower the signal; primary human foreskin fibroblasts
Procedure, shortened: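 Dosing human primary skin fibroblasts, then measuring surface EGFR by ELISA at 24 h, gives the endpoint; gains and losses relative to DMSO were fitted in both directions.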

[5] = read-out: Monokine induced gamma interferon (MIG), CXCL9 (gene 4283); test: BSK_hDFCGF_MIG: BioMAP Diversity Plus: hDFCGF Assay for Monokine induced gamma interferon (MIG) Biomarker Activity (AID 2283063); conditions: actives raise or lower the signal; primary human foreskin fibroblasts
Procedure, shortened: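 MIG/CXCL9 measured by ELISA 24 h after dosing primary human skin fibroblasts. Activity fitted in both directions against DMSO controls. Cytotoxicity was checked in parallel cultures by SRB staining read at 560 nm.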

[6] = read-out: E-selectin (Homo sapiens) (UniProt P16581); test: BSK_LPS_Eselectin: BioMAP Diversity Plus: LPS Assay for Eselectin Biomarker Activity (AID 2283077); conditions: actives raise or lower the signal; primary human HUVEC with PBMC
Procedure, shortened: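 Human umbilical vein endothelial cells co-cultured with PBMC under LPS stimulation; cell-surface E-selectin measured by ELISA 24 h after dosing. Change in either direction versus DMSO, with SRB total-protein staining in parallel cultures for cytotoxicity.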

[7] = read-out: Monocyte Chemoattractant Protein-1 (MCP1), CCL2 (gene 6347); test: BSK_SAg_MCP1: BioMAP Diversity Plus: SAg Assay for Monocyte Chemoattractant Protein-1 (MCP1) Biomarker Activity (AID 2283090); conditions: actives raise or lower the signal; primary human HUVEC with PBMC
Procedure, shortened: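 Values derive from bidirectional fitting of ELISA-measured MCP1 against DMSO controls. Readings were taken 24 h after dosing human vascular endothelial cells co-cultured with peripheral blood mononuclear cells under superantigen stimulation.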

[8] = molecular target: human Endothelin Receptor Type A (ETA), EDNRA (gene 1909) (UniProt P25101); test: NVS_GPCR_hETA: NovaScreen (NVS) G Protein-Coupled Receptor Assay for human Endothelin Receptor Type A (ETA) (AID 2283265; active = hit-call score of the fitted dose curve at least 0.9, where 1 is the maximum)
Procedure, shortened: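 Binding of radioligand to membrane protein extracted from SH-SY5Y cells was read by filtration and scintillation after 3 h. Compounds were screened at 25 uM in duplicate, with hits followed up in singleton concentration series to 50 uM.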

[9] = molecular target: chimpanzee Androgen Receptor (AR), AR (gene 747460) (UniProt O97775); test: NVS_NR_cAR: NovaScreen (NVS) Nuclear Receptor Binding Assay for chimpanzee Androgen Receptor (AR) (AID 2283346; active = hit-call score of the fitted dose curve at least 0.9, where 1 is the maximum;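 also: radioligand displacement from AR measured by scintillation counting in a cell-free assay; a loss of bound radioligand signal versus DMSO counts as binding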)
Procedure, shortened: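 Cell-free competition binding with insect-cell (Sf9/Sf21) extracted chimpanzee AR; scintillation signal from lysate at 72 h. Screened in duplicate at 25 uM, then concentration-response for actives; fitting relative to DMSO.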

[10] = molecular target: human Thyroid Receptor Alpha (TRa), THRA (gene 7067) (UniProt P10827); test: NVS_NR_hTRa_Antagonist: NovaScreen (NVS) Nuclear Receptor Binding Assay for human Thyroid Receptor Alpha Antagonism (TRa) (AID 2283362; active = hit-call score of the fitted dose curve at least 0.9, where 1 is the maximum;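 also: activity is loss of signal relative to DMSO baseline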)
Procedure, shortened: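 Cell-free AlphaLISA chemiluminescent binding read 1 h after dosing, antagonist mode; signal loss versus DMSO baseline. Primary screen in duplicate at 25 uM, then concentration series for actives.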

[11] = ATG_XTT_Cytotoxicity: Cytotoxicity Assessment in the Attagene TRANS-FACTORIAL HepG2 Assay (AID 2283584; active = hit-call score of the fitted dose curve at least 0.9, where 1 is the maximum;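 as to AC50: XTT signal for cell number as viability in transfected HepG2 cells; cells exposed to compound for 24 h before reading; active means loss of viability signal versus DMSO baseline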)
Procedure, shortened: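 HepG2 cells transiently transfected with GAL4-UAS multiple reporter units, dosed 24 h; cytotoxicity read by XTT as loss of signal versus DMSO baseline.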

[12] = CCTE_Deisenroth_5AR_NBTE_donor: CCTE's 5alpha-reductase NanoBRET Target Engagement Assay […], Deisenroth Lab (AID 2284319); conditions: actives raise or lower the signal
Procedure, shortened: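 Donor NanoLuc luminescence at 460-20 nm is the read-out, serving artifact detection. Transiently expressed SRD5A2-NanoLuc in HEK293T; 5 h total chemical exposure, testosterone tracer added for the final 2 h; fitting bidirectional relative to DMSO baseline.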

Measured: AC50

UniProt O97775, sequence (O97775 whole entry, looked up): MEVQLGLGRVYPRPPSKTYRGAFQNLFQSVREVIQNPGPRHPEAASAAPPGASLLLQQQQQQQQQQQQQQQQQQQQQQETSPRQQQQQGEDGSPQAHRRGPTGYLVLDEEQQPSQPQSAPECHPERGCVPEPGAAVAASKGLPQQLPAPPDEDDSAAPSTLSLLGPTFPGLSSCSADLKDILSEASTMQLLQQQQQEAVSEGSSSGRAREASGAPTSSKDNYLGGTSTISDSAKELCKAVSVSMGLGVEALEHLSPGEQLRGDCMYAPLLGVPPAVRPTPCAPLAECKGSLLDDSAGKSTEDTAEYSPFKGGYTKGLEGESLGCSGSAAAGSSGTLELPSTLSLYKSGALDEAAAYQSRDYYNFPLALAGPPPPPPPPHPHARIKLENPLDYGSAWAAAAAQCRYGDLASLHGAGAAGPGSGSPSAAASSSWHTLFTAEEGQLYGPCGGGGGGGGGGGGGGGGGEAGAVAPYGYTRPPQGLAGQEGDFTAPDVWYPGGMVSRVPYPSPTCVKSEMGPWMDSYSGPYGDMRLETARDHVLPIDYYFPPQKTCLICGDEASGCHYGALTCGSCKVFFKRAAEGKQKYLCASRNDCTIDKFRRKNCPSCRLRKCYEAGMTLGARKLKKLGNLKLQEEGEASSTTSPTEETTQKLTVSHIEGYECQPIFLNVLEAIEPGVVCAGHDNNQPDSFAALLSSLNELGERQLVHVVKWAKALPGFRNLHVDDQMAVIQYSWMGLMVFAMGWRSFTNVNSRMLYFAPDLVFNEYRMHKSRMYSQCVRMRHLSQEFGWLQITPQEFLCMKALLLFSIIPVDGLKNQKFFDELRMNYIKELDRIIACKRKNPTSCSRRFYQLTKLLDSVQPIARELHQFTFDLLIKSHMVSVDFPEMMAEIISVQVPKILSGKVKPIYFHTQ
UniProt P25101, sequence (P25101 whole entry, looked up): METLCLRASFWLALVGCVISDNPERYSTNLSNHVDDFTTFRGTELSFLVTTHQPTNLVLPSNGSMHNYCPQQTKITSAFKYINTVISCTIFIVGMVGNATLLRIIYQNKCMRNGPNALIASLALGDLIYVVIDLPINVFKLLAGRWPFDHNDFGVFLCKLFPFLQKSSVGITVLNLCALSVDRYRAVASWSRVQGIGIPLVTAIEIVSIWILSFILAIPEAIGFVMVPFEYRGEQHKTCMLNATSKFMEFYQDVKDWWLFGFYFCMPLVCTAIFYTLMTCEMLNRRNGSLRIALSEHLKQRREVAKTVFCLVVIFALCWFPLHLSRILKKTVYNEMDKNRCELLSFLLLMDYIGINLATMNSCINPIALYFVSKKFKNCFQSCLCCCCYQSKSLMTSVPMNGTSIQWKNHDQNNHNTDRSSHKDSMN
UniProt P10827, sequence (P10827 whole entry, looked up): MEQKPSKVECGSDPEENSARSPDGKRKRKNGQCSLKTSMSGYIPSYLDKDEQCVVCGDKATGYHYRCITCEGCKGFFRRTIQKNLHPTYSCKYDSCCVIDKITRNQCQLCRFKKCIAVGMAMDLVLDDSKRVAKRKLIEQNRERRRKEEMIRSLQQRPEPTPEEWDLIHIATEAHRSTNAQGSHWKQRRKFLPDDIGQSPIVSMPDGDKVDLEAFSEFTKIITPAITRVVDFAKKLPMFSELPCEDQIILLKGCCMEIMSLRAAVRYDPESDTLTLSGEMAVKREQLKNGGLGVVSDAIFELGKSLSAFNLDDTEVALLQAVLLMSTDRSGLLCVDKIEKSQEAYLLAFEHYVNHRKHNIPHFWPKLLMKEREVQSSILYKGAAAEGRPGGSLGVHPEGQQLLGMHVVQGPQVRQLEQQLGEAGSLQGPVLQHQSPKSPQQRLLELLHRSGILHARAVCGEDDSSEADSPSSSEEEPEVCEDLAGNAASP
UniProt P19793, sequence (P19793 whole entry, looked up, the tested form may be a part): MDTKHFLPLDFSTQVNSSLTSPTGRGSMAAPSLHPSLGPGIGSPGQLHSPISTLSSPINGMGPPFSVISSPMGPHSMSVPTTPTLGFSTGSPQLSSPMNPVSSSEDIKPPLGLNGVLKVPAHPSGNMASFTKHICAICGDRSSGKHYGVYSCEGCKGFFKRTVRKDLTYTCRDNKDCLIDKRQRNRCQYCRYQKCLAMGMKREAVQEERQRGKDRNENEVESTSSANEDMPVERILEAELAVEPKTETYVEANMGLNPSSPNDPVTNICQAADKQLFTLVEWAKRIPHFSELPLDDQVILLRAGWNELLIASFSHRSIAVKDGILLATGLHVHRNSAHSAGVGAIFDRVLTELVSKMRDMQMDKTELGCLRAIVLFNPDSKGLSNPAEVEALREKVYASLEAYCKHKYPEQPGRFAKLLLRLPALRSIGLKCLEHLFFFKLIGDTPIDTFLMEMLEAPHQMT
UniProt P16581, sequence (P16581 whole entry, looked up): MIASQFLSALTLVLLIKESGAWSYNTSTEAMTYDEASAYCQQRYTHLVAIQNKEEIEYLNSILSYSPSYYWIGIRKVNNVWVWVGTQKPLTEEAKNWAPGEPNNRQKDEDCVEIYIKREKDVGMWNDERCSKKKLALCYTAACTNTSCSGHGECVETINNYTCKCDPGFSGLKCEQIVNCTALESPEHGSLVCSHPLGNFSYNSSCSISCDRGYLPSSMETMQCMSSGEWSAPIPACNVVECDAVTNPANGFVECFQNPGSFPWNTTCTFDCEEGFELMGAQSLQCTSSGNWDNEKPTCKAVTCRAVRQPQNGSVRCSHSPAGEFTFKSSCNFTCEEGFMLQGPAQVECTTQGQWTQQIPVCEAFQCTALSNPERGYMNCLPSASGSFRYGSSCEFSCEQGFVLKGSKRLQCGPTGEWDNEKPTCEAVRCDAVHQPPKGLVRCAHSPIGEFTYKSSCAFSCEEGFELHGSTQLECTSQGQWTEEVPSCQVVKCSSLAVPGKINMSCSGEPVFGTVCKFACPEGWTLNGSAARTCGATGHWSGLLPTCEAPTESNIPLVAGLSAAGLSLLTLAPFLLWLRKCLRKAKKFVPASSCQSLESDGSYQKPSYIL

NC(=NCCCCCCN=C(N)/N=C(\N)Nc1ccc(Cl)cc1)/N=C(\N)Nc1ccc(Cl)cc1
inactive: [4] | [8] | [11]
active: [1] 26.2 µM | [2] 4.76 µM | [3] 7.34 µM | [5] 11.1 µM | [6] 4.89 µM | [7] 5.01 µM | [9] 22.5 µM | [10] 13.1 µM | [11] 27.2 µM | [12] 66.2 µM
